Laboratory results: the supplement of paper PMC11741623
The other results are listed elsewhere or left out. Interaction screen of human proteins with wild-type SARS-CoV-2 proteins by split-DHFR complementation in yeast, 1 µg/mL methotrexate. Value = fitness of the pair (three or more lineages) minus that of the viral protein without a human partner, on a scale set by negative (0) and fused positive (1) controls, mean of up to three cultures; higher = more likely to interact. Active = false discovery rate below 0.05 (one-sided t-test) in at least one culture. Nearly all pairs are not hits, and differences among them are mostly noise (correlation between cultures about 0.3); most hits were seen in one culture only. Human sequences are the Swiss-Prot entries looked up by gene name; the clone may be another isoform. NSP2 values were corrected by the authors for a growth advantage. Listed are human proteins with a hit and a random twelfth of the others.

What was measured:
Experiment in all cases: yeast fitness gain over the viral ORF with no human partner (scaled fitness); higher = more likely to interact
SARS-CoV-2 M = target: SARS-CoV-2 M
Experimental: (§1)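 Split mouse DHFR complementation in pooled diploid yeast: human ORFeome clones carry one fragment and viral ORFs the other; barcoded lineages compete in 1 µg/mL methotrexate and fitness is read by barcode sequencing in up to three cultures.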

SARS-CoV-2 N = target: SARS-CoV-2 N
Experimental: as §1

SARS-CoV-2 NSP10 = target: SARS-CoV-2 NSP10
Experimental: as §1

SARS-CoV-2 NSP12 = target: SARS-CoV-2 NSP12
Experimental: as §1

SARS-CoV-2 NSP13 = target: SARS-CoV-2 NSP13
Experimental: as §1

SARS-CoV-2 NSP14 = target: SARS-CoV-2 NSP14
Experimental: as §1

SARS-CoV-2 NSP15 = target: SARS-CoV-2 NSP15
Experimental: as §1

SARS-CoV-2 NSP2 = target: SARS-CoV-2 NSP2
Experimental: as §1

SARS-CoV-2 NSP4 = target: SARS-CoV-2 NSP4
Experimental: as §1

SARS-CoV-2 NSP5 = target: SARS-CoV-2 NSP5
Experimental: as §1

SARS-CoV-2 NSP6 = target: SARS-CoV-2 NSP6
Experimental: as §1

SARS-CoV-2 NSP7 = target: SARS-CoV-2 NSP7
Experimental: as §1

SARS-CoV-2 NSP9 = target: SARS-CoV-2 NSP9
Experimental: as §1

SARS-CoV-2 ORF10 = target: SARS-CoV-2 ORF10
Experimental: as §1

SARS-CoV-2 ORF3A = target: SARS-CoV-2 ORF3A
Experimental: as §1

SARS-CoV-2 ORF3B = target: SARS-CoV-2 ORF3B
Experimental: as §1

SARS-CoV-2 ORF6 = target: SARS-CoV-2 ORF6
Experimental: as §1

SARS-CoV-2 ORF7A = target: SARS-CoV-2 ORF7A
Experimental: as §1

SARS-CoV-2 ORF7B = target: SARS-CoV-2 ORF7B
Experimental: as §1

SARS-CoV-2 ORF8 = target: SARS-CoV-2 ORF8
Experimental: as §1

SARS-CoV-2 ORF9B = target: SARS-CoV-2 ORF9B
Experimental: as §1

[1] = target: SARS-CoV-2 ORF9Bwu (the 73-codon ORF)
Experimental: as §1

SARS-CoV-2 S = target: SARS-CoV-2 S
Experimental: as §1

SARS-CoV-2 NSP8 = target: SARS-CoV-2 NSP8
Experimental: as §1

SARS-CoV-2 NSP1 = target: SARS-CoV-2 NSP1
Experimental: as §1

SARS-CoV-2 NSP16 = target: SARS-CoV-2 NSP16
Experimental: as §1

Binder	yeast fitness gain (SARS-CoV-2 M)	yeast fitness gain (SARS-CoV-2 N)	yeast fitness gain (SARS-CoV-2 NSP10)	yeast fitness gain (SARS-CoV-2 NSP12)	yeast fitness gain (SARS-CoV-2 NSP13)	yeast fitness gain (SARS-CoV-2 NSP14)	yeast fitness gain (SARS-CoV-2 NSP15)	yeast fitness gain (SARS-CoV-2 NSP2)	yeast fitness gain (SARS-CoV-2 NSP4)	yeast fitness gain (SARS-CoV-2 NSP5)	yeast fitness gain (SARS-CoV-2 NSP6)	yeast fitness gain (SARS-CoV-2 NSP7)	yeast fitness gain (SARS-CoV-2 NSP9)	yeast fitness gain (SARS-CoV-2 ORF10)	yeast fitness gain (SARS-CoV-2 ORF3A)	yeast fitness gain (SARS-CoV-2 ORF3B)	yeast fitness gain (SARS-CoV-2 ORF6)	yeast fitness gain (SARS-CoV-2 ORF7A)	yeast fitness gain (SARS-CoV-2 ORF7B)	yeast fitness gain (SARS-CoV-2 ORF8)	yeast fitness gain (SARS-CoV-2 ORF9B)	yeast fitness gain [1]	yeast fitness gain (SARS-CoV-2 S)	yeast fitness gain (SARS-CoV-2 NSP8)	yeast fitness gain (SARS-CoV-2 NSP1)	yeast fitness gain (SARS-CoV-2 NSP16)
FAM216B, Q8N7L0 (protein) MGQNWKRQQKLWNVPQLPFIRVPPSIYDTSLLKALNQGQQRYFYSIMRIYNSRPQWEALQTRYIHSLQHQQLLGYITQREALSYALVLRDSTKRASAKVAPQRTIPRKTSAMTRRCPSVLPVSVVLPRAQSKRRQVLRN	inactive: 0.0444	inactive: 0.0322	inactive: 0.00816	inactive: -0.0417	inactive: -0.00176	inactive: -0.116	inactive: -0.388	inactive: -0.26	inactive: 0.0935	inactive: 0.00561	inactive: 0.0181	inactive: -0.343	inactive: 0.0267	inactive: 0.0341	inactive: 0.0873	inactive: -0.0141	inactive: -0.125	inactive: -0.0336	inactive: -0.12	inactive: -0.184	inactive: 0.0784	inactive: -0.135	inactive: -0.143	–	–	–
LBH, Q53QV2 (protein) MSIYFPIHCPDYLRSAKMTEVMMNTQPMEEIGLSPRKDGLSYQIFPDPSDFDRCCKLKDRLPSIVVEPTEGEVESGELRWPPEEFLVQEDEQDNCEETAKENKEQ	inactive: 0.0394	–	inactive: 0.0555	inactive: 0.00472	inactive: -0.0146	inactive: -0.416	inactive: 0.021	inactive: -0.115	inactive: -0.0818	inactive: 0.0363	inactive: -0.0283	inactive: -0.175	inactive: -0.0348	inactive: 0.00526	–	inactive: 0.0328	inactive: -0.0834	–	inactive: 0.0274	inactive: 0.0224	inactive: 0.0283	inactive: -0.121	inactive: -0.171	inactive: -0.054	–	–
DPEP1, P16444 (protein) MWSGWWLWPLVAVCTADFFRDEAERIMRDSPVIDGHNDLPWQLLDMFNNRLQDERANLTTLAGTHTNIPKLRAGFVGGQFWSVYTPCDTQNKDAVRRTLEQMDVVHRMCRMYPETFLYVTSSAGIRQAFREGKVASLIGVEGGHSIDSSLGVLRALYQLGMRYLTLTHSCNTPWADNWLVDTGDSEPQSQGLSPFGQRVVKELNRLGVLIDLAHVSVATMKATLQLSRAPVIFSHSSAYSVCASRRNVPDDVLRLVKQTDSLVMVNFYNNYISCTNKANLSQVADHLDHIKEVAGARAVGFGGDFDGVPRVPEGLEDVSKYPDLIAELLRRNWTEAEVKGALADNLLRVFEAVEQASNLTQAPEEEPIPLDQLGGSCRTHYGYSSGASSLHRHWGLLLASLAPLVLCLSLL	inactive: 0.0313	–	inactive: 0.0238	inactive: -0.00891	inactive: -0.0565	inactive: -0.14	inactive: 0.0243	inactive: -0.167	–	inactive: -0.0566	inactive: -0.0433	inactive: -0.0448	inactive: 0.0388	inactive: -0.054	inactive: -0.111	inactive: 0.0204	inactive: 0.0506	inactive: -0.0396	inactive: 0.0897	inactive: 0.074	inactive: -0.0168	inactive: -0.0651	inactive: 0.0157	inactive: 0.0586	inactive: -0.0255	inactive: 0.0192
GPX1, P07203 (protein) MCAARLAAAAAAAQSVYAFSARPLAGGEPVSLGSLRGKVLLIENVASLUGTTVRDYTQMNELQRRLGPRGLVVLGFPCNQFGHQENAKNEEILNSLKYVRPGGGFEPNFMLFEKCEVNGAGAHPLFAFLREALPAPSDDATALMTDPKLITWSPVCRNDVAWNFEKFLVGPDGVPLRRYSRRFQTIDIEPDIEALLSQGPSCA	inactive: 0.0477	–	inactive: -0.0272	inactive: -0.0255	inactive: -0.00571	–	inactive: -0.00233	inactive: -0.07	inactive: 0.107	inactive: 0.0155	inactive: 0.0217	inactive: 0.0539	inactive: -0.0582	inactive: 0.0492	–	inactive: -0.0194	inactive: -0.115	inactive: 0.0584	inactive: -0.0894	inactive: 0.0825	inactive: -0.0175	inactive: 0.147	inactive: -0.0557	inactive: 0.00965	inactive: 0.0774	inactive: 0.0941
C18orf56, Q8TAI1 (protein) MTPASGATASLGRLRARPRSRWDAAYLPAVAAVCVARASHVPNGTLRFGVCKARRTMRPLPRRIEVRTKRGPQRPAAPERSPQPRLPPSRHPSRRGPRRHLSGCSAPACRIPTGCRCPCGRPS	inactive: -0.0137	inactive: 0.0346	inactive: -0.0557	inactive: -0.0762	inactive: -0.107	–	–	inactive: -0.203	–	inactive: -0.0646	inactive: -0.053	inactive: 0.00295	inactive: -0.16	inactive: 0.114	inactive: -0.011	inactive: 0.0417	inactive: -0.154	inactive: 0.0894	inactive: -0.0049	inactive: -0.0152	inactive: 0.0722	inactive: 0.0565	inactive: -0.0402	inactive: 0.0472	inactive: -0.0426	inactive: 0.0747
IGSF8, Q969P0 (protein) MGALRPTLLPPSLPLLLLLMLGMGCWAREVLVPEGPLYRVAGTAVSISCNVTGYEGPAQQNFEWFLYRPEAPDTALGIVSTKDTQFSYAVFKSRVVAGEVQVQRLQGDAVVLKIARLQAQDAGIYECHTPSTDTRYLGSYSGKVELRVLPDVLQVSAAPPGPRGRQAPTSPPRMTVHEGQELALGCLARTSTQKHTHLAVSFGRSVPEAPVGRSTLQEVVGIRSDLAVEAGAPYAERLAAGELRLGKEGTDRYRMVVGGAQAGDAGTYHCTAAEWIQDPDGSWAQIAEKRAVLAHVDVQTLSSQLAVTVGPGERRIGPGEPLELLCNVSGALPPAGRHAAYSVGWEMAPAGAPGPGRLVAQLDTEGVGSLGPGYEGRHIAMEKVASRTYRLRLEAARPGDAGTYRCLAKAYVRGSGTRLREAASARSRPLPVHVREEGVVLEAVAWLAGGTVYRGETASLLCNISVRGGPPGLRLAASWWVERPEDGELSSVPAQLVGGVGQDGVAELGVRPGGGPVSVELVGPRSHRLRLHSLGPEDEGVYHCAPSAWVQHADYSWYQAGSARSGPVTVYPYMHALDTLFVPLLVGTGVALVTGATVLGTITCCFMKRLRKR	inactive: -0.0327	–	inactive: -0.0966	inactive: -0.0774	inactive: 0.00563	–	–	inactive: -0.336	–	–	–	inactive: -0.00793	inactive: 0.104	inactive: -0.39	inactive: 0.141	inactive: -0.0804	inactive: -0.00155	inactive: -0.123	inactive: -0.0571	inactive: -0.189	inactive: -0.0021	inactive: -0.133	–	inactive: -0.0297	inactive: -0.128	inactive: -0.0633
FKBP3, Q00688 (protein) MAAAVPQRAWTVEQLRSEQLPKKDIIKFLQEHGSDSFLAEHKLLGNIKNVAKTANKDHLVTAYNHLFETKRFKGTESISKVSEQVKNVKLNEDKPKETKSEETLDEGPPKYTKSVLKKGDKTNFPKKGDVVHCWYTGTLQDGTVFDTNIQTSAKKKKNAKPLSFKVGVGKVIRGWDEALLTMSKGEKARLEIEPEWAYGKKGQPDAKIPPNAKLTFEVELVDID	inactive: 0.0332	–	inactive: 0.0185	inactive: 0.0772	inactive: -0.000409	inactive: -0.192	inactive: 0.0664	active: 0.277	inactive: 0.292	inactive: -0.0423	inactive: -0.25	inactive: -0.0545	inactive: 0.165	inactive: -0.00368	inactive: 0.0708	inactive: 0.00162	inactive: 0.00366	inactive: -0.0938	inactive: 0.0433	inactive: 0.069	inactive: -0.0305	inactive: 0.0807	inactive: 0.148	inactive: 0.017	inactive: -0.137	–
C3orf35, Q8IVJ8 (protein) MKTMATRKRCKLSRTGPEFENVIKRLLCARTFHTRIGGDLTHGIINRGRRANAEQMGLQGSAQHFNIFPLDLWTQGKKTEVQKREGTDSIPAAGRSGTANQPSIAPHRCLFSRGITALDGLKRGRGCNGAAHLVRGDAWKTKLGEPWVSIALALAGPGAILILELSWFLG	inactive: 0.0186	–	inactive: -0.00578	inactive: 0.0333	inactive: -0.117	–	inactive: -0.0499	inactive: -0.12	–	inactive: -0.16	inactive: -0.00239	–	–	inactive: 0.0446	–	inactive: -0.00587	inactive: 0.0148	inactive: -0.0555	inactive: -0.0722	inactive: -0.0775	inactive: -0.0228	inactive: 0.0177	inactive: 0.0436	inactive: -0.0123	inactive: -0.136	–
HSD17B3, P37058 (protein) MGDVLEQFFILTGLLVCLACLAKCVRFSRCVLLNYWKVLPKSFLRSMGQWAVITGAGDGIGKAYSFELAKRGLNVVLISRTLEKLEAIATEIERTTGRSVKIIQADFTKDDIYEHIKEKLAGLEIGILVNNVGMLPNLLPSHFLNAPDEIQSLIHCNITSVVKMTQLILKHMESRQKGLILNISSGIALFPWPLYSMYSASKAFVCAFSKALQEEYKAKEVIIQVLTPYAVSTAMTKYLNTNVITKTADEFVKESLNYVTIGGETCGCLAHEILAGFLSLIPAWAFYSGAFQRLLLTHYVAYLKLNTKVR	inactive: 0.0136	inactive: 0.0107	inactive: -0.0387	inactive: 0.0968	inactive: -0.00599	–	inactive: 0.0616	inactive: -0.0586	inactive: -0.269	inactive: 0.0388	inactive: 0.0498	inactive: 0.0153	inactive: -0.0271	inactive: -0.0397	inactive: 0.036	inactive: 0.047	inactive: 0.0141	inactive: 0.0321	inactive: -0.000585	inactive: -0.0435	inactive: 0.0357	inactive: 0.051	inactive: -0.0102	inactive: 0.03	inactive: -0.0337	inactive: 0.0292
